The campaign covered roughly 16,000 compounds. About 120 (0.75%) were called active. About 4% were inconclusive and are not listed. Calls follow the shape of the dose curve; as a rule, active = well fitted inhibition curve with a large enough effect; inconclusive = small, poorly fitted or top-dose-only effect; inactive = no such curve, though single readings can be large or run the other way. The list shows a part of the results. Where a SMILES comes first, the peptide text is derived from it. Bridges are numbered along the chain shown (N, C = ends). [ ]: non-standard residue; d: D form. Nle = CCCC[C@H](N)C(=O)O; Orn = NCCC[C@H](N)C(=O)O; Mpa = O=C(O)CCS
molecular target: Rap guanine nucleotide exchange factor 3 (Homo sapiens) (UniProt O95398); experiment: Validation qHTS for antagonist of cAMP-regulated guanine nucleotide exchange factor 3 (EPAC1); conditions: EPAC1 Rap1B-BODIPY-GDP exchange, fluorescence; series mostly up to 150 µM; activity change, negative = inhibition: at the top concentration;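 also: plate controls were DMSO for no effect and ATA control for full effect; nearly all actives have a fitted effect of over 75% in size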
Chain of UniProt O95398 (O95398 whole entry, looked up): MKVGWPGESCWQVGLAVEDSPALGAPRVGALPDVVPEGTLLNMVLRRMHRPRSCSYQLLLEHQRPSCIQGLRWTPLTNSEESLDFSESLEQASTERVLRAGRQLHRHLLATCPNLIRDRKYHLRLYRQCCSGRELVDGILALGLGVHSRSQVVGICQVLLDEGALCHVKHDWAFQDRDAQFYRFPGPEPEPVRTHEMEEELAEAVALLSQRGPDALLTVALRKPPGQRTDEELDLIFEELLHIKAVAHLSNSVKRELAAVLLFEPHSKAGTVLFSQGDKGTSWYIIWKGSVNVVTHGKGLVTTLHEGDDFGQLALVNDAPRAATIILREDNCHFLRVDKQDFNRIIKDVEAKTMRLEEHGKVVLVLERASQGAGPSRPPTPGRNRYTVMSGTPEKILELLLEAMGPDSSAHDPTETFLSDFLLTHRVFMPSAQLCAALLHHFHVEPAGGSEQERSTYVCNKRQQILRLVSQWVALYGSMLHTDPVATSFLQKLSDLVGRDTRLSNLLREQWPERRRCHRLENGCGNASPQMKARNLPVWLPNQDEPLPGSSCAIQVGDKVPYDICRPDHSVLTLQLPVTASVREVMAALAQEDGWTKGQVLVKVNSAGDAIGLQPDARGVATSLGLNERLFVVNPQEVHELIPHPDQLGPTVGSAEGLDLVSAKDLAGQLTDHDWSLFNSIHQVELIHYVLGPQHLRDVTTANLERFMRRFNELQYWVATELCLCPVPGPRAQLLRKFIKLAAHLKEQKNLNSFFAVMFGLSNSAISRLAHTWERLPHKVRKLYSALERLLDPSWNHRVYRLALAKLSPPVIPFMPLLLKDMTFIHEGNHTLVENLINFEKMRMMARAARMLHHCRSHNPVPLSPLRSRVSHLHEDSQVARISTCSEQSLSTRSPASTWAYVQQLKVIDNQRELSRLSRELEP
In short: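 Nucleotide exchange followed as fluorescence loss when BODIPY-GDP leaves Rap1B (480 nm excitation, 540 nm emission), read at 5 min intervals over 30 min. Reaction: 100 nM EPAC1, 250 nM RAP1B-BODIPY-GDP, 50 uM GDP; ATA and DMSO define normalization.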

Activity change, negative = inhibition, inactive:
COc1ccc(C(=O)N2CCC[C@@]3(CCN(Cc4ccncc4)C3)C2)cc1 21.9%
COc1ccc(-c2nc3cnc(N4CCNCC4)nc3n(C)c2=O)cc1 14.1%
O=C(CN1Cc2ccccc2OC(c2ccccc2)C1)N1CCCCC1c1cccnc1 (centres undefined) -13.1%
CCOc1ccc2nc3cc(N)ccc3c(N)c2c1
O=c1c(O)c(-c2ccc(O)c(O)c2)oc2ccccc12 10.1%
CCN(CC)CCNc1ccc(CO)c2sc3ccccc3c(=O)c12 11.6%
CC(=O)C1CCC2C3CC(C)C4=CC(=O)CC[C@@]4(C)C3C(O)C[C@@]12C (some centres undefined) 22.4%
CC(=O)OC[C@H]1O[C@@](COC(C)=O)(O[C@H]2O[C@H](COC(C)=O)[C@@H](OC(C)=O)[C@H](OC(C)=O)[C@H]2OC(C)=O)[C@@H](OC(C)=O)[C@@H]1OC(C)=O 6.54%
O=c1c(CCc2ccccc2)nc2cnc(Oc3ccccc3)nc2n1C[C@H]1CCCO1 -13.7%
CC(=O)N1CCC2(CC1)CN(c1ccncc1)C2 3.2%
Cc1cnc(SCc2ccccn2)nc1C1CCCN(C(=O)c2cccc(-c3cccc(F)c3)c2)C1 (centres undefined) -4.88%
CN(Cc1cnc2nc(N)nc(N)c2n1)c1ccc(C(=O)N[C@@H](CCC(=O)O)C(=O)O)cc1
O=C(COc1ccc(Cl)cc1)N1CCN(Cc2ccc3c(c2)OCO3)CC1 7.99%
N[C@@H](Cc1ccc(O)cc1)C(=O)O 1.86%
CNC(C)CCC=C(C)C (centres undefined) 12.2%
COc1cc(OC)c2c(=O)c(-c3ccc4c(c3)OCO4)coc2c1 25.3%
Cc1oc(-c2ccccc2NC(=O)c2ccccn2)nc1CNC(=O)c1ccc(Oc2ccccc2)o1 -8.67%
O=c1[nH]cnc2c1ncn2C1OC(CO)C(O)C1O (centres undefined)
CCCC[C@@H](C=O)NC(=O)[C@H](CC(C)C)NC(=O)[C@H](CC(C)C)NC(C)=O (Ac-Leu-Leu-[Nle]-aldehyde) 34.8% [at 201 µM]
Cc1oc(-c2cccc(NC(=O)c3ccccc3)c2)nc1CNC(=O)c1cnc2ccccn2c1=O 9.43%
CCN1CCc2nc(N)oc2CC1
O=C(c1cccc(F)c1)N1CCC2(CCN(Cc3ccccc3)CC2)CC1 8.23%
CCCCCCCCCCCCCC[N+](C)(C)C 19.7%
C[N+](C)(C)CCOC(=O)CCC(=O)OCC[N+](C)(C)C
C=CC1=C(C(=O)O)N2C(=O)[C@@H](NC(=O)/C(=N\O)c3csc(N)n3)[C@H]2SC1 (stereo in doubt)
Cc1ccsc1/C=C/C1=NCCCN1C
CCCCCCCCCCCCCCCCOP(=O)([O-])OCC[N+](C)(C)C 10.3%
Cc1cc(NS(=O)(=O)c2ccc(N)cc2)nc(C)n1 9.33%
CN1CCN(c2ncc3nc(-c4ccc(Cl)cc4)c(=O)n(Cc4cccs4)c3n2)CC1 13.6%
CC(Cc1ccc(O)c(O)c1)(NN)C(=O)O (centres undefined) -5.31%
O=c1cnc2cnc(Nc3ccccc3)nc2n1Cc1cccs1 7.35%
CCCn1c(=O)[nH]c2nc(-c3ccc(S(=O)(=O)O)cc3)[nH]c2c1=O -11.9%
CCCCCCCCCC(=O)NC(CN1CCOCC1)[C@H](O)c1ccccc1 (some centres undefined) -6.76% [at 75.8 µM]
Cc1ccc(SC[C@H](C)CN2CC[C@H](C)CCC2=O)cc1 -20.5%
COc1ccccc1CN1CC[C@@]2(CCCN(S(=O)(=O)c3ccccc3)C2)C1 14.1%
COc1ccc(-c2cn(CCc3c[nH]c4ccccc34)nn2)cc1 -18%
CCc1noc(C)c1C(=O)N1CCOc2ccc(CN3CCCC(C(=O)c4cccnc4)C3)cc2C1 (centres undefined) 1.42%
COc1ccccc1N1CCN(CCCCN2C(=O)CCC2=O)CC1
C[N+]1(CC(=O)c2ccc(F)cc2)CCc2ccccc2C1 (centres undefined) 20.1%
CC(=O)N1CCC[C@H]1C(=O)NCC1Cc2cc(F)cc(-c3ccc(F)c(C)c3)c2O1 (some centres undefined) 16.7%
COc1cc(N)c(Cl)cc1C(=O)N[C@H]1CCN(CCCOc2ccc(F)cc2)C[C@@H]1OC -4.5%
CN(C)CCCN1c2ccccc2Sc2ccc(Cl)cc21
CCOC(=O)c1c(C)cc(O)cc1O 6.65%
CCCC1(C)C(C#N)(C#N)C1(C#N)C#N -3.18% [at 75.8 µM]
O=C(c1ccco1)N1CCC2(CC1)CN(C(c1ccccc1)c1ccccc1)C2 9.38%
O=C(NCCc1nnc2n1CCN(Cc1ccc(F)cc1)CC2)c1ccc(F)cc1 11.9%
CCCCCCCCCCCCCCCCOC[C@H](COP(=O)([O-])OCC[N+](C)(C)C)OC(=O)NC -10.4% [at 15.3 µM]
CCOc1ccc(C[C@H]2NC(=O)CCSSC[C@@H](C(=O)N3CCC[C@H]3C(=O)N[C@@H](CCCN)C(=O)NCC(N)=O)NC(=O)[C@H](CC(N)=O)NC(=O)[C@H]([C@@H](C)O)NC(=O)[C@H]([C@@H](C)CC)NC2=O)cc1 ([Mpa][dY](Et)ITNCP[Orn]G-NH2; disulfide 1-6) 7.37%
H-EQKQLQ-OH 25.4% [at 15.3 µM]
Cc1noc(C)c1-c1nccc(N(C)C)n1 -2.06%
COc1cc(-c2ccc(-[n+]3nc(-c4ccccc4)nn3-c3ccc([N+](=O)[O-])cc3)c(OC)c2)ccc1-[n+]1nc(-c2ccccc2)nn1-c1ccc([N+](=O)[O-])cc1 13.5%
COc1ccc(-c2coc3ccc(OC4OC(COC(C)=O)C(OC(C)=O)C(OC(C)=O)C4OC(C)=O)c(OC(C)=O)c3c2=O)cc1 (centres undefined) 8.03%
Cc1noc(C)c1CC(=O)N1CCOc2c(cc(-c3nc4ccccc4s3)cc2OC2CCOC2)C1 (centres undefined) -11.8%
Cc1cc(O)c2ccccc2c1O 2.15%
O=c1ccc2ccccc2o1 0.218%
COc1cccc(Cn2c(=O)c(-c3cccs3)nc3cnc(OC)nc32)c1 7.54%
CC1(C)C=Cc2cc3ccc(=O)oc3cc2O1 1.59%
NCCOB(c1ccccc1)c1ccccc1
Nc1nc(Nc2ccccc2)nc2c1ncn2[C@@H]1O[C@@H](CO)[C@H](O)[C@H]1O -12.9%
COC(=O)[C@@H]1C[C@H](NC(=O)c2ccccc2C(F)(F)F)CN1Cc1cccc(O)c1 38.7%
Cc1ccccc1-c1nccc(NCc2cccnc2)n1 0.278%
COc1cccc(Cn2c(=O)c(-c3cccs3)nc3cnc(Nc4cccc(OC)c4)nc32)c1 108%
C[C@@H]1CN(Cc2ccc3c(c2)CN(Cc2cccn2-c2ccc(Cl)cn2)CCO3)C[C@H](C)O1 24%
COC(=O)c1sccc1S(=O)(=O)N1CCC(n2c(CC3CCCC3)nc3cccnc32)CC1 -5.73%
N[C@@H](CCS(=O)O)C(=O)O
O=c1[nH]cnc2c1ncn2[C@@H]1O[C@H](CO)[C@@H](O)[C@H]1O 7%
CC(C)NC(=O)N1CC[C@@]2(CCCN(S(=O)(=O)c3ccccc3)C2)C1 -5.15%
COc1ccc(Oc2ncc3nc(-c4ccccc4)c(=O)n(C[C@H]4CCCO4)c3n2)cc1 5.41%
COc1cc2c(cc1O)CCN[C@]21CS[C@@H]2c3c(OC(C)=O)c(C)c4c(c3[C@H](COC1=O)N1[C@@H]2[C@H]2c3c(cc(C)c(OC)c3O)C[C@@H]([C@@H]1O)N2C)OCO4 -15.3% [at 320 µM]
CCCCOc1cc(CC2CNC(=O)N2)ccc1OC (centres undefined)
Cc1cccc(CNc2ccnc(-c3ccccc3CN(C)C)n2)c1 27%
CC(=O)OC1C[C@]2(C)C(C(C)=O)CCC2C2CCC3=CC(=O)CC[C@@]3(C)C12 (some centres undefined) 4.22%
O=C1NC(=O)/C(=C/c2ccc3c(c2)OC(F)(F)O3)S1 20.2% [at 75.8 µM]
COc1cc(-c2noc(C)c2C#Cc2ccsc2)cc(OC)c1OC -0.091%
CC(C)Cn1c(=O)n(C)c(=O)c2[nH]cnc21
CN(C)c1ncc2ncc(=O)n(Cc3cccs3)c2n1 12%
COCCN1CCN(C(=O)c2cnn(-c3nccc(-c4cc5ccccc5o4)n3)c2C2CC2)CC1 15.2%
CC(C)=CCC[C@@](C)(O)[C@H]1CC=C(C)CC1 -3.4%
CC1(C)C=CC(=O)[C@]2(C)C1CC(=O)[C@]1(C)C2CC[C@@]2(C)C(c3ccoc3)OC(=O)C3OC321 (some centres undefined) -7.18%
O=C(c1csnn1)N1CCC2(CCN(Cc3ccccc3)CC2)CC1 24.4%
O=C(c1cnccn1)N1CCC2(CCCN(Cc3ccccc3)C2)CC1 1.71%
O=c1cnc2cnc(OCc3ccccc3)nc2n1Cc1ccc(F)cc1 -17.7%
CN(C)c1ccc(/C=C/c2ccnc3c(O)ccc(O)c23)cc1 14.6%
O=C1C(=O)c2ccccc2C(O)=C1C1CCC(c2ccc(Cl)cc2)CC1 (centres undefined)
O=S(=O)(/C=C/c1ccccc1)N1CCC(n2c(C3CCCO3)nc3cccnc32)CC1 (centres undefined) 6.55%
NC(Cc1c[nH]c2ccccc12)C(=O)O (centres undefined) 2.39%
CC(=O)N[C@@H](C=O)[C@@H](O)[C@H](O)[C@H](O)CO 22.8%
CCS(=O)(=O)N1CCC[C@H]2CN3CCc4cc(OC)ccc4[C@@H]3C[C@@H]21
O=C(NCCc1ccccc1)[C@@H]1CC=C[C@@H]2CCN(C3CC3)C(=O)[C@@H]21 8.23%
COc1ccc(NC(=O)N2CCC3(CC2)CCN(C(=O)c2cnccn2)CC3)cc1 13.5%
COc1ccccc1C1CN(Cc2c(C)nn(C)c2Cl)Cc2ccccc2O1 (centres undefined) 15.4%
O=C(CN1CCNCC1)NC1CCCCC1 12.9%
Cc1ccccc1CN1[C@H](C)[C@H](c2ccccc2)OCCS1(=O)=O 2.86%
COc1ccc(-n2c(=O)cnc3cnc(Oc4ccccc4)nc32)cc1 2.73%
Cc1c(C(=O)NCC(C)(C)CN(C)C)cnn1-c1nccc(-c2ccccc2F)n1 15.3%
O=c1[nH]c(=O)c2ccccc2o1 4.18%
O=S1(=O)c2cccc3cccc(c23)N1CCCN1CCN(c2ccc(F)cc2)CC1 1.62%
COc1cccc(CN2CCC3(CCC(CNC(=O)c4ccccc4)O3)CC2)c1 (centres undefined) 3.81%
Nc1ncnc2c1ncn2C1CCCO1 (centres undefined)

Source: PubChem BioAssay AID1645882 (National Center for Advancing Translational Sciences (NCATS), 2021)
